Source: the supplement of paper PMC3334620
In all, about 33,000 sequences were measured (“E-score (-0.5 to 0.5)”: median about -0.021, highest 2% from about 0.32 on). The list shows a part of the results.

molecular target: T1, Zap1 (UniProt P47043); assay: PBM E-score (8-mer binding enrichment) (E-score (-0.5 to 0.5)); higher = stronger / more preferred TF binding; most listed sequences are background and not binding sites; conditions: protein concentration: 200 nM; construct: GST-full length
T1 sequence: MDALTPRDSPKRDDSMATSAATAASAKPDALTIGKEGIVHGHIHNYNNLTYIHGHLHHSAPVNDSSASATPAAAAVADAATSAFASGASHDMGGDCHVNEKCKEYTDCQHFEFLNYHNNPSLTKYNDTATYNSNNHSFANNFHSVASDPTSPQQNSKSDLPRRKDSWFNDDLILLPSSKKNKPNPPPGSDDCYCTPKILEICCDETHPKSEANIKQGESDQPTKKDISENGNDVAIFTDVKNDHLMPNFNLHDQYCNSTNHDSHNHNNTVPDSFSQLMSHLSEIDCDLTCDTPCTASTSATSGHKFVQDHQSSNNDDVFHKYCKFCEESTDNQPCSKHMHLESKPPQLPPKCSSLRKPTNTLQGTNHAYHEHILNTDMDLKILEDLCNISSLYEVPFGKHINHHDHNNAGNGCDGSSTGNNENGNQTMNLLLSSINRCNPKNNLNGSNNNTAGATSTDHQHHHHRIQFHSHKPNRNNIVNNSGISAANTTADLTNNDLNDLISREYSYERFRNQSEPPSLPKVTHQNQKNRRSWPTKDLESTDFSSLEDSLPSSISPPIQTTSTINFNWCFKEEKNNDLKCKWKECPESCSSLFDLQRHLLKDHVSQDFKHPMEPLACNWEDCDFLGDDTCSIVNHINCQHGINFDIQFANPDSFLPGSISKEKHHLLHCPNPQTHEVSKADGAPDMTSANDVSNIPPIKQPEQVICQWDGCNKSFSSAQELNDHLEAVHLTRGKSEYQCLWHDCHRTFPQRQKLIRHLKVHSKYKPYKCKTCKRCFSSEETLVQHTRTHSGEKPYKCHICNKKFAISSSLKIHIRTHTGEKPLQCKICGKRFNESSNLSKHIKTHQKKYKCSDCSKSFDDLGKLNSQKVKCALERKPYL
Protocol: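 Universal 'all 10-mer' protein binding microarrays (Agilent AMADID 015681) probed with GST-tagged S. cerevisiae TFs (full-length or DBD) made by in vitro transcription/translation (PURExpress), about 100-200 nM. Bound TF was detected with fluorescent anti-GST. Each ungapped 8-mer (which stands for itself and its reverse complement) is scored by the PBM enrichment score (E-score), a modified Wilcoxon-Mann-Whitney statistic from -0.5 to +0.5, computed with the Universal PBM Analysis Suite. Scale: above 0.35 generally sequence-specific binding.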

| Sequence | PBM E-score |
| --- | --- |
| AGGTTGCG | 0.333 |
| ACCGTTGC | 0.0636 |
| CTAATAGC | -0.172 |
| ATGTCAAG | -0.0774 |
| AAATAGGC | -0.206 |
| AGTATGGG | 0.134 |
| TAAATGGA | 0.0234 |
| GAAGACCC | 0.236 |
| CCCAAATA | 0.0595 |
| GAGGCGCA | -0.202 |
| GTATAAAC | 0.17 |
| AAGTGCGC | -0.119 |
| CATAAGAA | 0.14 |
| GGAGCCTA | -0.0319 |
| CCACGCAG | 0.108 |
| GCGAACCA | 0.136 |
| ATGAAAGG | 0.0617 |
| TACCTTGA | 0.337 |
| AATTATAA | 0.167 |
| TAAGAAGA | 0.128 |
| ATACCGAT | -0.0434 |
| AAAGATGC | -0.0891 |
| ACCATACT | 0.163 |
| CGACTCCC | -0.183 |
| TCCCCCCA | -0.409 |

| Sequence | PBM E-score |
| --- | --- |
| CAAATGAA | 0.0531 |
| ATGCGATA | -0.0301 |
| GCGGTTTA | 0.0853 |
| ATGCGAGG | 0.0405 |
| GCCTTGAA | 0.0337 |
| AATCCTAG | -0.0394 |
| CCCGCAGA | 0.0927 |
| TCTACACA | 0.0487 |
| AAAACCCC | 0.276 |
| AAGTTCCA | -0.0841 |
| ATAGTTTG | 0.201 |
| CAAGGGCC | 0.0489 |
| AGCCACGC | -0.207 |
| AAATTGCC | 0.0634 |
| GAGGCTCC | -0.155 |
| TAAAGTTA | 0.178 |
| CCGCGACC | 0.31 |
| ATGGCTCC | -0.196 |
| CCCGGTCG | -0.0704 |
| CAGCAACG | 0.126 |
| GGACGACC | -0.09 |
| AGCTAGAA | -0.0496 |
| AGCTGAGA | -0.132 |
| AAACGTTC | 0.141 |
| CTACCCCA | 0.139 |

| Sequence | PBM E-score |
| --- | --- |
| CTGATCTA | 0.00891 |
| ACCGCTCT | -0.13 |
| AGCAGCGG | -0.00451 |
| CGCTTGTC | -0.0941 |
| GAGACCGC | -0.0744 |
| GTGCTGTA | -0.06 |
| CATGAATC | -0.00321 |
| AATCGTAA | 0.132 |
| CCAGCATC | -0.0956 |
| GATAAAAC | 0.205 |
| CCGAGTCA | -0.0379 |
| TACCCGGA | 0.26 |
| AGTCAGCC | -0.327 |
| CCAATGGC | -0.087 |
| CACCAAAA | 0.235 |
| CACTAGGC | -0.193 |
| AGGAGTGG | -0.0525 |
| TCTGGTCA | 0.137 |
| AACACTGC | 0.0234 |
| ACTACGGA | -0.17 |
| ATTCAAGC | 0.0343 |
| ACCAGGGC | -0.129 |
| ATCGGTAG | -0.0461 |
| CAATCATA | -0.00937 |
| TAAGGGCA | -0.0345 |

| Sequence | PBM E-score |
| --- | --- |
| ATAAAGAA | 0.0657 |
| TAGTCATA | -0.227 |
| AATACCAT | 0.201 |
| GGAAGACA | -0.156 |
| CATGTAAA | -0.231 |
| ACTATTAG | 0.0955 |
| AAAAGGTA | 0.405 |
| ACTCCGAA | 0.047 |
| CACTACTG | -0.154 |
| GAAGGCCA | -0.0514 |
| AATAACAA | 0.0521 |
| CCAAGCCA | -0.122 |
| TCGTACAA | 0.148 |
| AAGAAAAG | -0.016 |
| GGGGCGTA | -0.0203 |
| CCGGCTGA | -0.129 |
| CACTACCG | 0.129 |
| ACTTTGTC | 0.0752 |
| CCAGCTCA | -0.164 |
| ATCTTATA | 0.206 |
| CCCAGATA | -0.104 |
| ATTGACCG | 0.102 |
| CAACGCGG | 0.0863 |
| ACAGCCGC | -0.195 |
| ACCATTCA | 0.228 |

| Sequence | PBM E-score |
| --- | --- |
| GGTGCGAA | 0.068 |
| ATAGAGTA | -0.0955 |
| TCGACACA | -0.0281 |
| ACAAGCCG | -0.223 |
| GAACACGA | 0.0697 |
| AAGATAGT | 0.0593 |
| GGTTCAAC | 0.115 |
| AAGGGCCA | 0.0177 |
| CGCGCAAA | 0.2 |
| TCCACTAA | 0.11 |
| ACTCCTAA | 0.0931 |
| CTGGGTAA | 0.185 |
| ACTGCGTA | -0.248 |
| ATAACATA | 0.146 |
| CGCCCGAG | -0.035 |
| ACCCCGAT | 0.197 |
| AGCTTTCA | 0.00388 |
| AATGGCCA | 0.284 |
| AGCGTCGA | -0.0253 |
| CAAACAGC | -0.00325 |
| CGACGGTC | -0.00952 |
| GGTTGGAC | -0.0843 |
| AAGTGCTA | -0.303 |
| CAAACAAA | 0.169 |
| AAGGGAGA | -0.189 |

| Sequence | PBM E-score |
| --- | --- |
| TGGCTACA | -0.0519 |
| CACCTTGC | -0.0856 |
| GCTGCATA | -0.0279 |
| CTCATCAC | -0.0421 |
| GATCATGA | 0.29 |
| AATGTGCT | -0.0872 |
| TCCGGTCA | -0.00083 |
| ACGCTTTC | -0.0677 |
| CTGGCATC | -0.278 |
| AGGGCCTA | -0.171 |
| CTATGGTC | 0.144 |
| CTGGCGTA | -0.341 |
| AAGGTATC | 0.255 |
| AATCCGCA | 0.151 |
| CTGCCCCA | -0.083 |
| ATCGGGTG | 0.202 |
| ATACACGC | -0.091 |
| GCTATGAA | -0.0097 |
| GAAACTAA | 0.0657 |
| AACACAAT | 0.152 |
| GTCCAGTA | -0.0637 |
| ATTGTACG | -0.165 |
| AGCTTATA | -0.119 |
| ACTTCACC | 0.0658 |
| CCCTGAGC | 0.0436 |

| Sequence | PBM E-score |
| --- | --- |
| ACCATCAG | 0.102 |
| CATTGGAA | 0.0492 |
| CGGGGGAC | -0.228 |
| AATCTCCA | -0.0264 |
| CAAAGTAG | -0.0671 |
| ACTATAGG | 0.0613 |
| ACTCGACT | -0.153 |
| AGGCAGAC | -0.138 |
| GACTTCTA | -0.176 |
| ACGGTGGA | -0.137 |
| CCTGAACA | -0.0412 |
| GAGCCCAC | -0.258 |
| AGTGAAAT | -0.158 |
| CCTAAGTC | -0.0361 |
| CCTCTAAG | 0.139 |
| CTGGCCTC | -0.166 |
| GGGCGTAA | -0.101 |
| AGGAGTTC | -0.274 |
| AACTTCAG | -0.0949 |
| AAGTGTAC | 0.0488 |
| GGTTGAAA | 0.0732 |
| CGCAAACC | 0.0968 |
